These are yes or no findings as the source states them, for the method shown. Where a sequence is shown, tags or fusion partners need not be part of it.
Legend:
[1] = biological target: T1, His6-Smt3-Utp18 1–100 (yeast (S. cerevisiae)) (UniProt P40362); experiment: condition: 0.95 nmol Utp18 fragment, 1.9 nmol Utp21 1–684; pull-down; His6-Smt3-tagged Utp18 fragments (0.95 nmol) incubated with Utp21 1–684 (1.9 nmol) 2 h at 4°C, bound to Ni Sepharose beads; washed with 25 mM Tris-HCl pH 7.6, 500 mM NaCl, 10 mM imidazole; SDS-PAGE, Coomassie; both purified
T1 sequence: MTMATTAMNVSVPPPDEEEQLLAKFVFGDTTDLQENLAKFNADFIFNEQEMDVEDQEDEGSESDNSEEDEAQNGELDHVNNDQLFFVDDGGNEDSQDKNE

[2] = biological target: T2, His6-Smt3-Utp18 183–594 (yeast (S. cerevisiae)) (UniProt P40362); experiment: as above
T2 sequence: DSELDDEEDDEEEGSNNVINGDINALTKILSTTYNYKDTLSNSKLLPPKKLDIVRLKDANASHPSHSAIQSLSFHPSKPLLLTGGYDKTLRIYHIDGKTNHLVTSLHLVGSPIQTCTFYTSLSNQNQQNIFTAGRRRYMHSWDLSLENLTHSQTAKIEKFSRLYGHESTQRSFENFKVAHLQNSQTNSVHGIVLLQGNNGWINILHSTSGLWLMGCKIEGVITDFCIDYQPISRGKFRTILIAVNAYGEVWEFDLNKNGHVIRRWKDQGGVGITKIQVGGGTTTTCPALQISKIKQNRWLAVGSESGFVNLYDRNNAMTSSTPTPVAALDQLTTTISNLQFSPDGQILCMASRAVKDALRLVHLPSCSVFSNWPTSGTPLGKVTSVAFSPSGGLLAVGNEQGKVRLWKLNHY

B1: Utp21 1–684 (tandem WD domain, GST-tag cleaved) (domain or fragment, UniProt Q06078 1-684)
chain: MSIDLKKRKVEEDVRSRGKNSKIFSPFRIIGNVSNGVPFATGTLGSTFYIVTCVGKTFQIYDANTLHLLFVSEKETPSSIVALSAHFHYVYAAYENKVGIYKRGIEEHLLELETDANVEHLCIFGDYLCASTDDNSIFIYKKSDPQDKYPSEFYTKLTVTEIQGGEIVSLQHLATYLNKLTVVTKSNVLLFNVRTGKLVFTSNEFPDQITTAEPAPVLDIIALGTVTGEVIMFNMRKGKRIRTIKIPQSRISSLSFRTDGSSHLSVGTSSGDLIFYDLDRRSRIHVLKNIHRESYGGVTQATFLNGQPIIVTSGGDNSLKEYVFDPSLSQGSGDVVVQPPRYLRSRGGHSQPPSYIAFADSQSHFMLSASKDRSLWSFSLRKDAQSQEMSQRLHKKQDGGRVGGSTIKSKFPEIVALAIENARIGEWENIITAHKDEKFARTWDMRNKRVGRWTFDTTDDGFVKSVAMSQCGNFGFIGSSNGSITIYNMQSGILRKKYKLHKRAVTGISLDGMNRKMVSCGLDGIVGFYDFNKSTLLGKLKLDAPITAMVYHRSSDLFALALDDLSIVVIDAVTQRVVRQLWGHSNRITAFDFSPEGRWIVSASLDSTIRTWDLPTGGCIDGIIVDNVATNVKFSPNGDLLATTHVTGNGICIWTNRAQFKTVSTRTIDESEFARMALPSTSVR
- binding [1]: no binding
- binding [2]: no binding
